Entries with a single value are a further part of the results.
Molecular target: recombinant KIR2DL3 protein (entire extracellular domain, produced in E. coli, immobilized) (human) (UniProt P43628)
Assay: Biacore, KIR2DL3 chip; second Ab injected alone

UniProt P43628, sequence (P43628 22-245): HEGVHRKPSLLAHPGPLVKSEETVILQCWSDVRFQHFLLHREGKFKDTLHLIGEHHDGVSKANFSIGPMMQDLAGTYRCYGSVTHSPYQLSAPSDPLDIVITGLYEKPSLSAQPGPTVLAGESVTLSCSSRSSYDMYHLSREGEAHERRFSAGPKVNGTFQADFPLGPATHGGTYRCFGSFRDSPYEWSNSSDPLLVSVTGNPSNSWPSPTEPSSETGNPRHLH

- RU, second antibody alone (after first antibody 1-4 F1): 1140 RU
- RU, second antibody alone (after first antibody 1-6 F1): 790 RU
- RU, second antibody alone (after first antibody 1-6 F5): 800 RU
- RU, second antibody alone (after first antibody 1-7 F9): 770 RU
Substance: monoclonal antibody DF200 produced by hybridoma DF200

— patent US20060263361A1
